Test results reported in PubChem BioAssay AID2147 (National Center for Advancing Translational Sciences (NCATS), 2009).
“And” between values parts separate entries of the source, which are not always exact repeats. Identical values can stand only once. Screen size: about 230,000 compounds; about 3,600 (1.6%) were called active. The shares of active, inactive and inconclusive entries below differ from those in the screen. Calls come from the whole dose curve; as a rule, active = well fitted inhibition curve with a large enough effect (not every such curve was filed as active); inconclusive = small, poorly fitted or top-dose-only effect, or another doubt; inactive = no such curve, though single readings can be large or run the other way. Where the call is inconclusive, the potency comes from a doubtful curve fit.

What follows are compounds tested against Lysine-specific demethylase 4E (Homo sapiens) (UniProt B2RXH2) (assay: qHTS Assay for Inhibitors of Human Jumonji Domain Containing 2E (JMJD2E)). Conditions: JMJD2E catalytic domain, FDH-coupled NADH fluorescence (FDH is formaldehyde dehydrogenase); series mostly up to 57.1 µM; activity change, negative = inhibition: at the top concentration.
Chain of UniProt B2RXH2 (B2RXH2 whole entry, looked up, the tested form may be a part): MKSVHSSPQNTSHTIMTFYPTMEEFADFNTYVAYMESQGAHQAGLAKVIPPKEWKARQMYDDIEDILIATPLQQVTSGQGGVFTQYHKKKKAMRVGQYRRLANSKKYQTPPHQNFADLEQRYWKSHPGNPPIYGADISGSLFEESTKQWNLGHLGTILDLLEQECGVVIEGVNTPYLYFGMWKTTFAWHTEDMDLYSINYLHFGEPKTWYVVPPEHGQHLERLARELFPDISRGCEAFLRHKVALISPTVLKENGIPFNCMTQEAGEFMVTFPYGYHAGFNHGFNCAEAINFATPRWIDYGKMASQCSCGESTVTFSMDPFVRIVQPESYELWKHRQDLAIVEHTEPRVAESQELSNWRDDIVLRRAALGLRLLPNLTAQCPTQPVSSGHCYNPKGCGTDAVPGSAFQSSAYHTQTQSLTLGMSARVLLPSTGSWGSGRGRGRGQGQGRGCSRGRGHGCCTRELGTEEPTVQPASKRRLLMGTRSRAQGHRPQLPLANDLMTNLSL
Note: nearly all actives have a fitted effect of over 50% in size.
Potency is the fitted concentration of half-maximal effect; tags give direction and shape of the fitted curve.
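Throughout, for activity change, negative = inhibition: 0% = wells with enzyme and -100% = buffer wells without enzyme.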

| SMILES | activity change, negative = inhibition | Potency |
| --- | --- | --- |
| Fc1ccc(-c2oncc2-c2nnnn2-c2ccccc2)cc1F | inactive: 5.8% | – |
| CC(C)CC(=O)NC(=S)Nc1ccc(NC(=O)c2ccco2)cc1 | inactive: -7.14% | – |
| CCOc1ccc(-c2nc(N)ncc2-c2ccccc2OC)c(O)c1 | inactive: 0.955% | – |
| Cc1ccc(C2C3=C(CC(C)(C)CC3=O)NC3=C2C(=O)c2ccccc23)cc1 (stereo unspecified) | inactive: -0.254% | – |
| CSc1ccc(CNc2cccc3ccccc23)cc1 | – | inconclusive: 28.2 µM [inhibitor, partial curve] |
| COc1ccccc1-c1c(C)nn2c(N3CCN(Cc4ccccc4)CC3)cc(C)nc12 | – | inconclusive: 39.8 µM [inhibitor, single point] |
| CCOC(=O)C(C)Sc1nc(=O)n2cc(C)ccc2n1 (stereo unspecified) | – | inconclusive: 31.6 µM [inhibitor, partial curve] |
| CCOc1ccc(-n2c(Cc3cc(=O)[nH]c(=O)[nH]3)nnc2SCC(N)=O)cc1 | – | inconclusive: 39.8 µM [inhibitor, single point] |
| O=C(CC1Nc2ccccc2NC1=O)Nc1cc(Cl)cc(Cl)c1 (stereo unspecified) | – | inconclusive: 39.8 µM [inhibitor, single point] |
| Cc1oc(-c2cccc(C(F)(F)F)c2)nc1CN1CCC[C@H]1CO | inactive: -3.22% | – |
| O=[N+]([O-])c1cccc(/C=N/Nc2nc(NCc3ccccc3)nc(N3CCOCC3)n2)c1O | inactive: -11.9% | – |
| O=C(N/N=C\c1ccc2c(c1)OCO2)c1ccco1 | – | inconclusive: 35.5 µM [inhibitor, single point] |
| Cc1ccc(Nc2cc(-n3cccn3)ncn2)c(C)c1 | inactive: 15.9% | – |
| CCOc1ccc(C(=O)Nc2ccc(NC(=O)c3ccco3)c(Cl)c2)cc1Cl | – | inconclusive: 22.4 µM [inhibitor, partial curve] |
| O=C(CSC1=NC(=O)C(Cc2ccccc2)C(=O)N1)Nc1ncccn1 (stereo unspecified) | inactive: -5.45% | – |
| O=C(CCCN1C(=O)/C(=C/c2ccco2)SC1=S)Nc1ccccc1 | inactive: -7.15% | – |
| Oc1ccccc1/C=N/NC(=S)NC1CC2CCC1C2 (stereo unspecified) | – | active: 25.1 µM |
| O=C(CCn1c(=O)sc2ccccc21)NC1=NCCS1 | – | inconclusive: 8.91 µM [inhibitor, single point] |
| COc1ccc(C(=O)N(NC(=O)Oc2ccccc2)C(C)(C)C)cc1 | inactive: 3.9% | – |
| COC(=O)CC1=C(C(=O)OC)C(c2ccncc2)C(C#N)=C(N)O1 (stereo unspecified) | – | inconclusive: 39.8 µM [inhibitor, single point] |
| COc1ccc(-c2cc(=O)c3c(OC)c(OC)c(OC)c(OC)c3o2)cc1OC | – | inconclusive: 31.6 µM [inhibitor, partial curve] and inconclusive: 25.1 µM [inhibitor, partial curve] and inconclusive: 22.4 µM [inhibitor, partial curve] |
